Assay [1] addresses Flag-CLK2^K192R (CLK2 kinase-dead mutant) (UniProt P49760). In words: pull-down; purified His-p65 and Flag-CLK2 (or Flag-CLK2^K192R) incubated in lysis buffer for 4 h at 4 °C, washed three times with lysis buffer, western blotting; both purified.
Assay [2] concerns the target Flag-CLK2 (CDC-like kinase 2) (UniProt P49760). The description is as above.
Assay [3] addresses p65^S180D/KI (p65 S180D from knock-in HEK293T cells) (human (endogenous in HEK293T)) (UniProt Q04206). Briefly: co-IP; endogenous proteins in p65^+/+, p65^S180D/KI, p65^S180A/KI and CLK2^−/− HEK293T cells, in the presence or absence of TNF-α stimulation; results normalised to total p65.
Assay [4] concerns the target endogenous p65 (RelA/p65), wild type (human (endogenous in HEK293T)) (UniProt Q04206). The assay is described as above.
The target in assay [5] is Flag-CLK2^K192R (CLK2 kinase-dead mutant) (UniProt P49760). Briefly: co-IP; HEK293T cells transfected with HA-p65 and Flag-CLK2 or Flag-CLK2^K192R, with or without TG003 (20 μM); NP40 lysis buffer (50 mM Tris-HCl pH 8.0, 150 mM NaCl, 0.5–1.0% NP40), indicated antibodies and Protein A or G beads, 4 °C overnight.
For assay [6], the target named is Flag-CLK2 (CDC-like kinase 2) (UniProt P49760). Described as above.
In assay [7] the target is Flag-tagged CLK2 from knock-in HEK293T cells (CLK2^Flag/KI) (human (endogenous in HEK293T)) (UniProt P49760). In words: co-IP; CLK2^Flag/KI HEK293T cells, Flag antibody, in the presence or absence of SeV and TNF-α stimulation for different times; NP40 lysis buffer.
Assay [8] deals with p65^S180A/KI (p65 S180A from knock-in HEK293T cells) (human (endogenous in HEK293T)) (UniProt Q04206). Briefly: co-IP; endogenous proteins in p65^+/+, p65^S180D/KI, p65^S180A/KI and CLK2^−/− HEK293T cells, in the presence or absence of TNF-α stimulation; results normalised to total p65.
The target of assay [9] is p65^S180D, exogenously expressed (UniProt Q04206). In words: co-IP; exogenous coimmunoprecipitation of p65^S180D and IκBα (Supplementary Fig. 6h).

Amino acid sequences for entries named in this document (tags omitted). A change or cut given only in a name is not applied to a line headed by its entry. Chains listed by the source or under a name are the forms on record and can include a tag or linker. Residues count along the entry.
Flag-CLK2^K192R (CLK2 kinase-dead mutant) (P49760, form named): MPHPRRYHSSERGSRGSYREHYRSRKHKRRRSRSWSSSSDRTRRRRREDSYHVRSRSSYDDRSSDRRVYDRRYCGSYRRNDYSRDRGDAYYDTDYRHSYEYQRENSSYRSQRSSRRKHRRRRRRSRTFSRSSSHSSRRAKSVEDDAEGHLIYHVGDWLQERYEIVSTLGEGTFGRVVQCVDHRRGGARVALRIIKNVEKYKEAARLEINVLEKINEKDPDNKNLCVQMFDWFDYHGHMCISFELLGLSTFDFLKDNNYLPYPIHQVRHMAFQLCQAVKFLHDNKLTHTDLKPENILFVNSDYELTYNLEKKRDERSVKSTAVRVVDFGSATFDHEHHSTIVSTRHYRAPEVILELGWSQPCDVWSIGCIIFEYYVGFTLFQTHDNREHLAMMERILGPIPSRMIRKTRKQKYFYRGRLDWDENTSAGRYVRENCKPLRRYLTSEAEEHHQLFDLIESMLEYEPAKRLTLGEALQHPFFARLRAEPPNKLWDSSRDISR
Flag-tagged CLK2 from knock-in HEK293T cells (CLK2^Flag/KI) (human (endogenous in HEK293T)) (P49760, form named): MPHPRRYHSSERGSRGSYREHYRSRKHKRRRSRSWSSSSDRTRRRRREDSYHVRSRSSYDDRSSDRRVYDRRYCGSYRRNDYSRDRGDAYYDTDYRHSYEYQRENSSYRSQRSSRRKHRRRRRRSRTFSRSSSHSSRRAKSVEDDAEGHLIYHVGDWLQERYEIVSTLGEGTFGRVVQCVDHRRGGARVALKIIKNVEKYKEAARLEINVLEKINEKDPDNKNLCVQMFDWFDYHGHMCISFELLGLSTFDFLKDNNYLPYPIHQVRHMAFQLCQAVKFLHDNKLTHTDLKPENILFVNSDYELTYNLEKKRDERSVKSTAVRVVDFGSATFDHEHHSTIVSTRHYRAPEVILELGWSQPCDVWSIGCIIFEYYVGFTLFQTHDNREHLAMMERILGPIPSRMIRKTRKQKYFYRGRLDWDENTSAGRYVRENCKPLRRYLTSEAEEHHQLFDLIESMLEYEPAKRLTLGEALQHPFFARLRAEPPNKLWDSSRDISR
UniProt Q04206: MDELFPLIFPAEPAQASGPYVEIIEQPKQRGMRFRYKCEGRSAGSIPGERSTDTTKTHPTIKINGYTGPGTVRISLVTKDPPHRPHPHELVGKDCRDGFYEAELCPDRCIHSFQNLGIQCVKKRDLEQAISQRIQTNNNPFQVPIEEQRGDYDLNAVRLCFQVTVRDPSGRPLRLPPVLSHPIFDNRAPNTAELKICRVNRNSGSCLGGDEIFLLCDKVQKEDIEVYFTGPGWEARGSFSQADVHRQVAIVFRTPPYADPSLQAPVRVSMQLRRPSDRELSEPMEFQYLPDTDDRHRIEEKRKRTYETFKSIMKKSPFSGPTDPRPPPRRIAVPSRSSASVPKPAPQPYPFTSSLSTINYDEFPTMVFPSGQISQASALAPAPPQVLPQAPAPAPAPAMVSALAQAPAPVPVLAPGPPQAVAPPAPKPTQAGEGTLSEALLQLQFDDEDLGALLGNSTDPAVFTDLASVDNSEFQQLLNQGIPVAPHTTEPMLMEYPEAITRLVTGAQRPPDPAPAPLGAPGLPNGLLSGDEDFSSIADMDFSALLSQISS
UniProt P19838, residues 1-433: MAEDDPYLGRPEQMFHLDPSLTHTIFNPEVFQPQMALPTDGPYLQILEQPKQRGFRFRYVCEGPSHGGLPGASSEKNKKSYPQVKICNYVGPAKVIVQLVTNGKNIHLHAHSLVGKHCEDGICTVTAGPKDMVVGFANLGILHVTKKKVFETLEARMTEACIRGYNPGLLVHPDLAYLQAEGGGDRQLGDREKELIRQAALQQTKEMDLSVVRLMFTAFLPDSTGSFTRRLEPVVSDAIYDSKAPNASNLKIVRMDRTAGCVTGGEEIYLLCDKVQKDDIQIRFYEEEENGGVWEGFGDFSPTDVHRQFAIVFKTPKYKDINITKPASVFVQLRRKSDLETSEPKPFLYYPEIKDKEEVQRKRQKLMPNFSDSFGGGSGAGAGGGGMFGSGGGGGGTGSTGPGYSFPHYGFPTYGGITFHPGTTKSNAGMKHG
UniProt P25963: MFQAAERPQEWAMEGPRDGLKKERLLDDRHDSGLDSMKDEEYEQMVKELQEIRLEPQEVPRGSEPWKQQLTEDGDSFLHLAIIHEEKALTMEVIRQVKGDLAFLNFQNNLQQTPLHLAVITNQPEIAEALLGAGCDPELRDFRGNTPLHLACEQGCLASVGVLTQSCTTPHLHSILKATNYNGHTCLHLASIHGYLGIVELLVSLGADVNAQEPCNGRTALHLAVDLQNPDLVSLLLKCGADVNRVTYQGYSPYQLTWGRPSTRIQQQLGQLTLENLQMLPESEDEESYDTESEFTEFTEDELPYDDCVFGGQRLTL
UniProt O14980: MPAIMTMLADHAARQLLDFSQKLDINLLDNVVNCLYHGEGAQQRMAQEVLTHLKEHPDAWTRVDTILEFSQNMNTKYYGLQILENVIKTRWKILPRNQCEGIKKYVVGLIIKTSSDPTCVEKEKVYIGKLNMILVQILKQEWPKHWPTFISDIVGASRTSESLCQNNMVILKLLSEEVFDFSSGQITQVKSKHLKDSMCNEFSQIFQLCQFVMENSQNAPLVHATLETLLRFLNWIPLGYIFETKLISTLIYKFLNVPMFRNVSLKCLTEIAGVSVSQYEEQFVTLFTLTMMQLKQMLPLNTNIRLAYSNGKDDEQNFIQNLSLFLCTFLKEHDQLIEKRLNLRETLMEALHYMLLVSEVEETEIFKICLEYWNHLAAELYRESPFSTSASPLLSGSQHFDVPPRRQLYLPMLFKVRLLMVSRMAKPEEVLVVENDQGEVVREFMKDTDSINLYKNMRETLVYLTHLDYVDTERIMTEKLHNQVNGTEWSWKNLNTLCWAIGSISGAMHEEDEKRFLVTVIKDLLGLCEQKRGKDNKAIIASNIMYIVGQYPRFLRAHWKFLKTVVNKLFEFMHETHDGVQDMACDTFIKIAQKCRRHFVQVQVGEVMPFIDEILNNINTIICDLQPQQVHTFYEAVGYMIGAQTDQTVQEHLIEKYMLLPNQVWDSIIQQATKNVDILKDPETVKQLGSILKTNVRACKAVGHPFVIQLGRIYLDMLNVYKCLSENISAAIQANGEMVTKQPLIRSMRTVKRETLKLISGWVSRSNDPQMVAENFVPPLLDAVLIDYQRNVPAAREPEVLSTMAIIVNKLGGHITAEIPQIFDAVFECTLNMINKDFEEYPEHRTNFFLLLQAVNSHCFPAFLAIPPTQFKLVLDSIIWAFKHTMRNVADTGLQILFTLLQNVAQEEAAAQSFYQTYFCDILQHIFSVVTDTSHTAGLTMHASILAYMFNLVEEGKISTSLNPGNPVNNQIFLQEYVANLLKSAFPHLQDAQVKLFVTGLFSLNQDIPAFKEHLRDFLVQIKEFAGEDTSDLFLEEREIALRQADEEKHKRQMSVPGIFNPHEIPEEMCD

These are yes or no findings as the source states them, for the method shown. For part of these data: In cells and extracts the contact can be indirect. Some results given as binding are weak or reduced against the parent protein; the word gives no strength.

With His-p65 (from UniProt Q04206 1-551), the binding entry in [1] is listed as “no binding”; in assay [2], “binds”. In the case of “endogenous p50 (NF-κB p105/p50) (from UniProt P19838 1-433)”, the binding result in assay [3] and in assay [4] was “binds” throughout.

In the case of “HA-p65 (RelA/p65 subunit of NF-κB) (from UniProt Q04206 1-551)”, the binding result in assay [5] is “no binding”; in assay [6], “binds”. With “endogenous p65 (RelA/p65), wild type (from UniProt Q04206 1-551)”, the binding result in [7] is on record as “binds”. As for “endogenous IκBα (from UniProt P25963 1-317)”, the binding entry in assay [8] was “binds”. As to “IκBα, exogenously expressed (from UniProt P25963 1-317)”, in assay [9], the binding entry is reported as “binds”. Turning to “endogenous nuclear export protein CRM1 (from UniProt O14980 1-1071)”, the binding result in [3], in assay [8] and in assay [4] was “binds” throughout.

Source of the values: article PMC11082251.
